From PubChem BioAssay AID651820 (National Center for Advancing Translational Sciences (NCATS), 2012)
The campaign covered roughly 340,000 compounds. About 12,000 (3.5%) were called active. Inconclusive means that the source gave no clear call. Such entries were picked first, then a sample of the others. Calls follow the shape of the dose curve; as a rule, active = well fitted inhibition curve with a large enough effect; inconclusive = small, poorly fitted or top-dose-only effect, or another doubt; inactive = no such curve, though single readings can be large or run the other way. No potency is given beside an inconclusive call; the fits are too rough.

Test: qHTS Assay for Inhibitors of Hepatitis C Virus (HCV)
Conditions: Huh7.5.1 HCVcc-Cre (HCVcc is cell-culture hepatitis C virus) infection, luciferase reporter, 44 h; series mostly up to 41.8 µM
How it was run: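 Seed cells (1,000/well) for 4 h; treat with compound and infect with HCVcc-Cre, moi about 0.5. Incubate 44 h, then detect luciferase activity.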
Potency is read from the fitted curve at half-maximal effect; tags tell the direction and shape of the fitted curve.

SMILES | Potency
COc1ccc(OCC(=O)Nc2ccc(N3CCN(C(=O)c4ccccc4)CC3)c(Cl)c2)cc1 | inconclusive [inhibitor, partial curve]
O=S(=O)(c1ccccc1)N(CC(O)Cn1c2ccccc2c2ccccc21)c1ccccc1 (configuration not stated) | inconclusive [inhibitor, single point]
C=CCOc1ccc(/C=C/C(=O)OCC(=O)Nc2c(C)n(C)n(-c3ccccc3)c2=O)cc1 | inactive
Cn1cc(C(=O)NCc2ccc(F)cc2)c(=O)c2cc(S(=O)(=O)N3CCCCC3)ccc21 | inconclusive [inhibitor, single point]
CCOc1ccc(-c2nnc(Nc3ccc(OC)c(C(=O)N4CCCCC4)c3)c3ccccc23)cc1 | active: 14.1 µM
CCN(CC(=O)Nc1c(F)cccc1F)C(=O)c1cccc(S(=O)(=O)N2CCc3ccccc3C2)c1 | inconclusive [inhibitor, partial curve]
O=C1N(Cc2cccc(Cl)c2)C[C@@H]2C[C@@H](c3cccn3-c3ccccn3)N3CCC[C@@]123 | active: 6.31 µM
Cc1onc(-c2ccccc2)c1C(=O)Nc1cccc2nsnc12 | inconclusive [inhibitor, full curve, poor fit]
O=P1(NCCCn2cc[n+](Cc3nc4ccccc4[nH]3)c2)C=C(c2ccccc2)OC(c2ccccc2)=C1 | inactive
COc1ccc(OC)c2[nH]c(=O)c(CCNS(=O)(=O)c3ccccc3)cc12 | inactive
O=C(C1=C[C@H](c2ccc(C(F)(F)F)cc2)C[C@H](OCc2ccc(CO)cc2)O1)N1CCN(Cc2ccc3c(c2)OCO3)CC1 | active: 10 µM
COc1ccc2nc(N=Nc3ccc(N(C)C)cc3)sc2c1 | inactive
COc1cc([N+](=O)[O-])c2nc(C=NNC(N)=S)ccc2c1 | inconclusive [inhibitor, single point]
Cc1ccc(Oc2cnc3ccccc3n2)cc1 | inactive
CN(C(=O)CSc1ncc(C(F)(F)F)cc1Cl)c1c(N)n(Cc2ccccc2)c(=O)[nH]c1=O | inconclusive [inhibitor, partial curve]
CC(=O)c1c(C)[nH]c(C(=O)OCc2ccc(F)cc2Cl)c1C | inconclusive [inhibitor, full curve]
O=C(NCCc1ccc(Cl)cc1)C(=O)Nc1cc2c3c(c1)CC(=O)N3CCC2 | inconclusive [inhibitor, single point]
CCCC12C(=O)C(C)(C(c3ccccc3)=C1c1ccccc1)C1C(=O)N(c3ccc(C)cc3)C(=O)C12 (configuration not stated) | active: 4.47 µM
O=[N+]([O-])c1cccc(S(=O)(=O)c2ccc(N3CCCCC3)c([N+](=O)[O-])c2)c1 | active: 8.91 µM
N#C/C(=N\Nc1ccc(Cl)cc1)C(N)=S | inconclusive [inhibitor, single point]
O=C(OCC(=O)N1CCN(c2ccccc2)CC1)c1cccc([N+](=O)[O-])c1 | inconclusive [inhibitor, single point]

SMILES | Potency
COc1ccc(C2NCCc3c2[nH]c2ccccc32)cc1COc1ccc(F)cc1 (configuration not stated) | active: 10 µM
O=S(=O)(c1cccc(F)c1)N1CCN(c2ncnc3scc(-c4ccc(F)cc4)c23)CC1 | inconclusive [inhibitor, single point]
CC(CCc1ccccc1)NC(=O)CN1CCN(c2ccc(O)cc2)CC1 (configuration not stated) | inactive
COc1ccc(/C=C/C(=O)NCc2ccc(F)cc2)cc1S(=O)(=O)N1CCOCC1 | inconclusive [inhibitor, single point]
CN(C)CCCNc1nc2sc3c(c2c(=O)n1CCc1ccccc1)CCCCC3 | inconclusive [inhibitor, single point]
CNC(=O)[C@@H]1CCC(=O)N1 | inconclusive [inhibitor, single point]
O=C(NN1CCN(Cc2ccccc2)CC1)c1ccc(N2CCOCC2)c([N+](=O)[O-])c1 | inconclusive [inhibitor, single point]
CCOc1c(C(=O)CC)cc2c(C)cc(=O)oc2c1C | inconclusive [inhibitor, full curve, poor fit]
Cn1cc(CN2CCCC(CNC(=O)c3ccc4c(c3)OCO4)C2)c2ccccc21 (configuration not stated) | inactive
CCCCN(C(=O)C1CC(=O)N(c2ccc(OC)cc2OC)C1)c1c(N)n(CC(C)C)c(=O)[nH]c1=O (configuration not stated) | inactive
Cc1cc(C)c(S(=O)(=O)NCc2ccc3c(c2)cc(C)n3C)c(C)c1 | inconclusive [inhibitor, partial curve]
O=C(NCc1ccccc1)C1=C[C@@H](c2ccccc2)C[C@@H](OCc2ccc(CO)cc2)O1 | inconclusive [inhibitor, single point]
O=[N+]([O-])c1ccc(CN2CCN(c3ccc([N+](=O)[O-])cc3)CC2)cc1 | inconclusive [inhibitor, single point]
COc1ccc(N(CC(=O)Nc2cccc(N(C)S(C)(=O)=O)c2)S(=O)(=O)c2ccc(C)cc2)cc1 | inconclusive [inhibitor, single point]
COCCCN(C(=O)CSCC(=O)Nc1ccc(C)cc1)c1c(N)n(Cc2ccccc2)c(=O)[nH]c1=O | inconclusive [inhibitor, single point]
O=C(Nc1nc2c(F)cccc2s1)C1CC1 | inconclusive [inhibitor, single point]
Fc1c(F)c(-n2nnc3ccccc32)c(F)c(F)c1Cl | inconclusive [inhibitor, single point]
Cc1nc(NC(=O)C2CC2)sc1C(=O)NC1CCCCC1 | inactive
O=C(CO/N=C/c1c(Cl)cccc1Cl)NNC(=O)c1ccc(Cl)cc1 | inconclusive [inhibitor, single point]
COc1ccc(-c2sc3ccccc3c2C#CC2(O)CCCCC2)cc1 | inconclusive [inhibitor, single point]
Cc1ccc(N2CCN(C(=O)c3nn(C)c4c3CS(=O)(=O)c3ccccc3-4)CC2C)cc1 (configuration not stated) | inconclusive [inhibitor, single point]
